In all, about 310,000 compounds went through this assay and about 2,200 (0.71%) showed an effect of 50% or more. Effects have a minus sign here. The list shows a part of the results.

In the experiment the target is human ether-à-go-go-related gene (hERG) potassium channel (human, UniProt Q12809). Briefly: primary screen, population patch clamp on CHO cells stably expressing hERG.
Chain of human ether-à-go-go-related gene (hERG) potassium channel (Q12809 whole entry, looked up): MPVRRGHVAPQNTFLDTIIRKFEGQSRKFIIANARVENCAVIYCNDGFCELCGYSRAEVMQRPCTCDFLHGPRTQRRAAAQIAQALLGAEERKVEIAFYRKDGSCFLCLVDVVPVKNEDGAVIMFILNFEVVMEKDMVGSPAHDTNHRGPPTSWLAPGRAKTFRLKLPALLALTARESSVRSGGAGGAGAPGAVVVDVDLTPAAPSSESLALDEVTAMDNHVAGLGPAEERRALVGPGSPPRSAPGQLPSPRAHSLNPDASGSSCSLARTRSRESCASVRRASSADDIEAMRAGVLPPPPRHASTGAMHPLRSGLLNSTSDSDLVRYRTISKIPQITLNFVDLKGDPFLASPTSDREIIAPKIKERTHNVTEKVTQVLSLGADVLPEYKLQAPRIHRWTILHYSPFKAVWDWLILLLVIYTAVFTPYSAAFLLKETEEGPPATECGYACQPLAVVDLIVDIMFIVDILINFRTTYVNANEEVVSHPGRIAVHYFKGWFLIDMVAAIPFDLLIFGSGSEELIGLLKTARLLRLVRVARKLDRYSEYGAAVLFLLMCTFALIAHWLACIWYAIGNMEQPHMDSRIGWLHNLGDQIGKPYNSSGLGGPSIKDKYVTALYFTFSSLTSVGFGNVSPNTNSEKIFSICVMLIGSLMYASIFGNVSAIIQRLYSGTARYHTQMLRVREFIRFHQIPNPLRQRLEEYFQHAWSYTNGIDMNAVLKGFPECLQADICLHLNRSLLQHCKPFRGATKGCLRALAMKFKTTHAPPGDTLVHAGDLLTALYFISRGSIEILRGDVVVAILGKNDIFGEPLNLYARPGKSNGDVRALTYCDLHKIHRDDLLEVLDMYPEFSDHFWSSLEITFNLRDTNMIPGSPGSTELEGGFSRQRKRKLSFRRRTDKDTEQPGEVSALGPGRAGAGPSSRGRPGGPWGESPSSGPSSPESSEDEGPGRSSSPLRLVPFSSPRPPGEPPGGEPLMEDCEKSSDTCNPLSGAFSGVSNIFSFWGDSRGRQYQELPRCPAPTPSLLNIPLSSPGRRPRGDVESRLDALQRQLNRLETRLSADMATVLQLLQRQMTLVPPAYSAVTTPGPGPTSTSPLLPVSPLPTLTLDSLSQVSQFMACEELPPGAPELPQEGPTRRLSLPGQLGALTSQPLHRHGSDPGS
For the molecule `COc1ccc(NS(=O)(=O)c2cc3c(cc2C)N(C)CCO3)cc1`, the “hERG current change (%, negative = inhibition) at 1uM” value came to 5.55%. Consider `O=c1cc(C(F)(F)F)[nH]c2ccc(OC(F)(F)F)cc12`, for which the “hERG current change (%, negative = inhibition) at 1uM” value stood at 7.38%.

Take `CCC(=O)c1ccc(OCC(=O)OCC(=O)NCC2CCCCC2)cc1`: the “hERG current change (%, negative = inhibition) at 1uM” value is 8.21%. Next, `Nc1nn2c(C(F)(F)F)cc(=O)[nH]c2c1N=Nc1cccc(F)c1`: 14.2%.

With `CCC(C(=O)NC1CCCC1)N(C(=O)Cn1nnc(-c2ccc(C)o2)n1)c1ccc(OC)c(OC)c1` (stereo not shown), the “hERG current change (%, negative = inhibition) at 1uM” value was found to be 7.35%. Under `O=C(CSc1ncccc1C(=O)O)NC1CCCCC1` stands 29.3%. With `O=C(COC(=O)CNC(=O)C12CC3CC(CC(C3)C1)C2)Nc1ccccc1`, the “hERG current change (%, negative = inhibition) at 1uM” value was -7.19%.

As for `COC(=O)c1sccc1NC(=O)Cc1ccc(OC)c(OC)c1`, the “hERG current change (%, negative = inhibition) at 1uM” value is 15.9%. For the molecule `O=C(Nc1ccc(Cl)cc1)Nc1cccc2nsnc12`, the “hERG current change (%, negative = inhibition) at 1uM” value is recorded as 4.32%.

As to `CN(C)c1ncnc2c1NC1=C(S2)C(=NCCCC(=O)O)CC(C)(C)C1`, the “hERG current change (%, negative = inhibition) at 1uM” value stood at 0.211%. For the molecule `COc1ccc(NC(=O)c2ccccc2-c2ccccc2)cc1`, the “hERG current change (%, negative = inhibition) at 1uM” value is 10.9%. Next, `Cc1cccc(C(=O)Nc2ccc(S(=O)(=O)N3CCOCC3)cc2C)c1`: 17.6%.

Turning to `Cn1c(=O)c(Oc2ccc(Cl)cc2)c(O)c2ccccc21`, the “hERG current change (%, negative = inhibition) at 1uM” value was 23.6%. Regarding `Cc1cccc(OCC(=O)O/N=C(\N)Cc2ccc(Cl)cc2)c1`, the “hERG current change (%, negative = inhibition) at 1uM” value came out at 5.63%.

Regarding `CCOc1ccc(N(CC(=O)NCc2ccc(F)cc2)C(=O)CCC(=O)Nc2nccs2)cc1`, the “hERG current change (%, negative = inhibition) at 1uM” value was determined as 15.6%.

Consider `CCNC(=S)NNC(=O)c1cc(-c2cc(C)ccc2C)nc2ccccc12`, for which the “hERG current change (%, negative = inhibition) at 1uM” value worked out at 17.5%. For `CC1=NN(C(N)=S)C(=O)C1N=Nc1ccccc1O` (stereo not shown), the “hERG current change (%, negative = inhibition) at 1uM” value is 19.7%. Next, `O=C(CSc1nnc(Cc2ccccc2)n1-c1cccc(Cl)c1)NNC(=O)Cc1ccccc1`: 15%; `COc1ccc(C(CNC(=O)c2cccc3cccnc23)N(C)C)cc1` (stereo not shown): 7.3%.

Consider `CCn1nc(NC(=O)COC)c2cc3cc(C)ccc3nc21`, for which the “hERG current change (%, negative = inhibition) at 1uM” value stood at 9.09%. Under `Cc1ccc(Cl)cc1N1CCN(S(=O)(=O)c2cn(C)cn2)CC1` stands 9.22%; under `COCCN(C(=O)c1ccc(OC2CCN(S(=O)(=O)N(C)C)CC2)cc1)C(C)C`, 11.1%.

Turning to `CCN(CC)c1cc(-c2ccccc2)ncn1.Cl`, the “hERG current change (%, negative = inhibition) at 1uM” value was found to be 7.81%. Turning to `CC(C)(CO)NC(=O)C12CC3CC(CC(Br)(C3)C1)C2`, the “hERG current change (%, negative = inhibition) at 1uM” value was found to be 15.3%. Next, `Cc1cccc(-c2nc(CS(=O)CC(=O)N3CCN(C)CC3)c(C)o2)c1` (stereo not shown): 23.2%.

For the origin of these results see paper PMC4336329 (PLoS ONE, 2015).
